Out of some 5,400 compounds screened, about 190 (3.5%) showed an effect of 50% or more. The list shows a part of the results. Residues, ends and D or L forms follow the SMILES beside them.
system: Vero-E6; test: primary screen, phospholipidosis by LipidTOX staining; higher = more effect of the substance; conditions: 10 µM
Outline: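 Single-concentration screen at 10 μM, with DMSO 0.1 v/v % and amiodarone 10 μM as controls. Read-out is LipidTOX Red phospholipid staining, which tolerates aldehyde fixation, in Vero-E6 cells.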

| SMILES | result_ITMP |
| --- | --- |
| CN1CCCN=C1COC(=O)C(O)(c1ccccc1)C1CCCCC1 (centres unmarked) | -2.78% |
| CC(C)(Oc1ccc(Cl)cc1)C(=O)O | -1.36% |
| CC[C@H]1OC(=O)[C@@](C)(F)C(=O)[C@H](C)[C@@H](O[C@@H]2O[C@H](C)C[C@H](N(C)C)[C@H]2O)[C@](C)(OC)C[C@@H](C)C(=O)[C@H](C)[C@H]2N(CCCCn3cc(-c4cccc(N)c4)nn3)C(=O)O[C@]12C | 11.3% |
| Clc1ccc(COC(Cn2ccnc2)c2ccc(Cl)cc2Cl)c(Cl)c1 (centres unmarked) | 5.2% |
| O=C(NCCN1CCC(n2c(=O)[nH]c3ccccc32)CC1)c1cc2cc(F)ccc2[nH]1 | 8% |
| N=C1NCCN1CC(=O)O | 1.96% |
| NCCC(Oc1ccc(C(F)(F)F)cc1)c1ccccc1 (centres unmarked) | 62.2% |
| Cc1cc(=O)n(-c2ccccc2)n1C | -2.37% |
| CS(=O)(=O)n1cc2c(n1)CN([C@H]1CO[C@H](c3cc(F)ccc3F)[C@@H](N)C1)C2 | 0.04% |
| CCCN(CCc1cccs1)[C@H]1CCc2c(O)cccc2C1 | 2.79% |
| CC(C)(C)C(=O)NCCCC(=O)O | -5.58% |
| N#Cc1ccc(N(Cc2ccc(Br)cc2)n2cnnc2)cc1 | -1.94% |
| Cn1ncc(Cl)c1-c1cc(C(=O)N[C@H](CN)Cc2cccc(F)c2)sc1Cl | 69.5% |
| Cc1ccc(/C=C2/C(=O)C3(C)CCC2C3(C)C)cc1 (centres unmarked) | -2.21% |
| CC(C)(C)C[C@@H]1N[C@@H](C(=O)N[C@H]2CC[C@H](O)CC2)[C@H](c2cccc(Cl)c2F)[C@]12C(=O)Nc1cc(Cl)ccc12 | 29.6% |
| O=c1c2ccccc2oc2ccccc12 | -2.07% |
| Fc1cc(F)c2c(c1)[C@H]1C=CC[C@H]1C(c1cccnc1)N2 (mixture of isomers) | -14.4% |
| CC(C)(C)c1cc(C(=O)/C(C#N)=N/Nc2cccc(Cl)c2)no1 | -1.63% |
| Cc1ccc(-c2ncc(Cl)cc2-c2ccc(S(C)(=O)=O)cc2)cn1 | -1.48% |
| NCC(=O)O | -0.53% |
| CCCc1c(OCCCCc2nnn[nH]2)ccc(C(C)=O)c1O | -2.7% |
| O=[N+]([O-])c1nccn1CC(O)CN1CCCCC1 (centres unmarked) | -2.43% |
| CC1CCc2c(N3CCC(O)CC3)c(F)cc3c(=O)c(C(=O)O)cn1c23 (centres unmarked) | 1.06% |

| SMILES | result_ITMP |
| --- | --- |
| CN(C)C(=N)NCCC[C@H](N)C(=O)O | -6.33% |
| CC(C)[C@@H]1CC[C@@H](C)C[C@@H]1P(=O)(c1ccccc1)c1ccccc1 | 20.3% |
| OC[C@H]1O[C@@H](c2ccc(F)c(Cc3cc4ccccc4s3)c2)[C@H](O)[C@@H](O)[C@@H]1O | 0.18% |
| O=C(OC(C(F)(F)F)C(F)(F)F)N1CCC(C(O)(c2ccc3c(c2)OCO3)c2ccc3c(c2)OCO3)CC1 | -0.06% |
| NC(N)=N/C(N)=N/CCc1ccccc1 | -1.11% |
| C[C@@H]1NC(=O)NC1=O | -6.33% |
| Cc1csc(S(=O)(=O)N(CC(C)C)c2cc3c(cc2OCc2ccc(C(=O)O)cc2)CCC3)n1 | -7.13% |
| CCCCCC(O)CCCC(=O)[O-] (centres unmarked) | -2.69% |
| Nc1ncnc(Nc2ccc(Cl)cc2)n1 | -1.52% |
| CC(C)(C)c1ccc(C(=O)Nc2cn3cc(-n4ccnc4)ccc3n2)cc1 | 1.75% |
| Nc1nnc2[nH]c3ccccc3nc1-2 | -7.77% |
| CCCCCCCCCCCCCCCC(=O)NCCO | -0.94% |
| CCCCCCCCCCCCCCCC(=O)OC(CC(=O)O)C[N+](C)(C)C (centres unmarked) | 0.17% |
| N[C@H](Cc1c[nH]cn1)C(=O)O | 1.48% |
| Cc1sc2c(c1C)C(c1ccc(Cl)cc1)=N[C@@H](CC(=O)OC(C)(C)C)c1nnc(C)n1-2 | 13.2% |
| Cc1c(Cc2ccc3ccccc3n2)c2cc(F)ccc2n1CC(=O)O | -5.37% |
| CO[C@@H](C(=O)N1Cc2[nH]nc(NC(=O)c3ccc(N4CCN(C)CC4)cc3)c2C1)c1ccccc1 | 6.88% |
| CC(=O)[C@@]12OC(C)(c3ccccc3)O[C@@H]1C[C@H]1[C@@H]3CCC4=CC(=O)CC[C@]4(C)[C@H]3CC[C@@]12C (some centres unmarked) | -0.91% |
| Cc1c(C(=O)NCCCO)cnn1-c1nc(-c2cccc(C(F)(F)F)c2)cs1 | -0.84% |
| Cc1cccc(N2CC(CO)OC2=O)c1 (centres unmarked) | -0.17% |
| C=CC(=O)N1CCC(Oc2cc3c(Nc4ccc(Cl)c(Cl)c4F)ncnc3cc2OC)CC1 | 35.1% |
| CC(=O)NC[C@H]1CN(c2ccc(N3CCN(C(=O)CO)CC3)c(F)c2)C(=O)O1 | -1.38% |
| CC(C)c1cccc2c1OC(C(C)C)C(=S)N2CC(=O)O (centres unmarked) | -9.41% |

| SMILES | result_ITMP |
| --- | --- |
| c1ccc2sc(SNC3CCCCC3)nc2c1 | -0.51% |
| C[C@H](NC(=O)CNC(=O)c1cccc(Cl)c1)c1ccccc1 | -1.81% |
| Cc1cc(Nc2ccc(NC(=O)c3ccc(Nc4ccnc5ccccc45)cc3)cc2)nc(N)n1 | 13.5% |
| CCC(Cc1c(I)cc(I)c(N)c1I)C(=O)O (centres unmarked) | -2.69% |
| CCC(NC(C)C)C(O)c1ccc(O)c(O)c1 (centres unmarked) | 19.2% |
| C/C(=N\NC(=O)C(NC(=O)c1ccccc1)c1n[nH]c(=O)c2ccccc12)c1cccc(Br)c1 (centres unmarked) | -0.51% |
| COc1ccc(OC)c(C(O)C(C)N)c1 (centres unmarked) | -0.82% |
| COC(=O)c1cc2c(C(F)(F)F)cc(-c3ccccc3)cc2n1O | -5.6% |
| CNC(CC(=O)O)C(=O)O (centres unmarked) | 0.5% |
| NCC(=O)N[C@@H](CCC(N)=O)C(=O)O (H-Gly-Gln-OH) | -2.88% |
| C[C@H](NC(=O)Cc1cc(F)cc(F)c1)C(=O)N[C@H](C(=O)OC(C)(C)C)c1ccccc1 | -3.76% |
| Ic1cncc(OC[C@@H]2CCN2)c1 | 0.83% |
| CC(O)CC(=O)O (centres unmarked) | 2.83% |
| CC(C)N(CCCNC(=O)Nc1ccc(C(C)(C)C)cc1)C[C@H]1O[C@@H](n2ccc3c(N)ncnc32)[C@H](O)[C@@H]1O | -10.6% |
| CC(=O)NC1N=C(c2ccccc2)c2ccccc2NC1=O (centres unmarked) | 1.13% |
| C=C[C@@]1(C)CC(=O)[C@]2(O)[C@@]3(C)[C@@H](O)CCC(C)(C)[C@@H]3[C@H](O)[C@H](OC(C)=O)[C@@]2(C)O1 | -2.23% |
| CN1CCN(C2=Cc3ccccc3Oc3ccc(Cl)cc32)CC1 | 61.3% |
| C[C@]12CC[C@@H]3c4ccc(O)cc4CC[C@H]3[C@@H]1CC[C@@H]2OC(=O)CCC1CCCC1 | -1.02% |
| C[C@H](NC(=O)[C@@H](O)c1cc(F)cc(F)c1)C(=O)N[C@@H]1C(=O)N(C)c2ccccc2-c2ccccc21 | -2.55% |
| O=C(O)CCCCN(CCc1ccccc1OCc1ccc(CCc2ccccc2)cc1)Cc1ccc(C(=O)O)cc1 | 0.2% |
| CO[C@@]1(NC(=O)CSCC#N)C(=O)N2C(C(=O)O)=C(CSc3nnnn3C)CS[C@@H]21 | -3.31% |
| CCOC(=O)c1cc2ccc(O)cc2oc1=O | -3.11% |
| COc1ccc2[nH]c(I)c(CCNC(C)=O)c2c1 | -1.65% |

| SMILES | result_ITMP |
| --- | --- |
| CCOc1cncc(/C=C/CCNC)c1 | -0.57% |
| O=c1cc(N2CCOCC2)oc2c1ccc1ccccc12 | 0.24% |
| N[C@H](CO)C(=O)O | 0.12% |
| CCn1c(-c2nonc2N)nc2cncc(CNC3CCNCC3)c21 | 2.13% |
| O=S(=O)(c1cccc2cnccc12)N1CCNCC1 | 0.47% |
| C[C@H]1O[C@@H](O[C@H]2[C@@H](O)C[C@H](O[C@H]3[C@@H](O)C[C@H](O[C@H]4CC[C@]5(C)C6C[C@@H](O)[C@]7(C)[C@@H](C8=CC(=O)OC8)CC[C@]7(O)C6CC[C@@H]5C4)O[C@@H]3C)O[C@@H]2C)C[C@H](O)[C@@H]1O (some centres unmarked) | -8.53% |
| CC(=O)N(O)CCCCCNC(=O)CCC(=O)N(O)CCCCCNC(=O)CCC(=O)N(O)CCCCCN | -0.4% |
| O=C1Cc2cc(CCN3CCN(c4nsc5ccccc45)CC3)c(Cl)cc2N1 | 0.61% |
| CC(C)/N=c1\cc2n(-c3ccc(Cl)cc3)c3ccccc3nc-2cc1Nc1ccc(Cl)cc1 | 7.06% |
| C[N+](C)(C)CCCCCNCC12CC3CC(CC(C3)C1)C2 | 0.34% |
| CCCC(=O)N1CCCN(c2nc(N)c3cc(OC)c(OC)cc3n2)CC1 | 0.19% |
| CCN[C@H]1C[C@H](C)S(=O)(=O)c2sc(S(N)(=O)=O)cc21 | 2.72% |
| O=C(O)CCCCCCCCCCCCCCc1ccc(I)cc1 | 0.54% |
| CCC(CC)O[C@@H]1C=C(C(=O)O)C[C@H](N)[C@H]1NC(C)=O | -2.44% |
| O=c1cc(-c2ccc(O)c(O)c2)oc2cc(O)cc(O)c12 | -5.81% |
| CC(=O)Nc1ccc(NC(=S)NC(=O)c2ccc(C(C)(C)C)cc2)cc1 | 2.55% |
| CCOc1cc(C(=O)N2CCC(N3CCN(C)CC3)CC2)ccc1Nc1ncc2c(n1)N(C1CCCC1)c1ccccc1C(=O)N2C | 14.1% |
| O=C(NOCCO)c1ccc2cncn2c1Nc1ccc(I)cc1F | 2.64% |
| CC(C)(CC(=O)N1CCCC1)NCC(=O)N1C[C@@H](F)C[C@H]1C#N | -0.16% |
| C[C@]12CC[C@@H]3c4ccc(OC(=O)N(CCCl)CCCl)cc4CC[C@H]3[C@@H]1CC[C@@H]2OP(=O)([O-])[O-] | -4.08% |
| COC(=O)Nc1ccc(-c2nc(N3CCOCC3)c3cnn(C4CCN(Cc5cccnc5)CC4)c3n2)cc1 | 24.2% |
| CC(C)(C(=O)c1cccnc1)c1cccnc1 | -0.75% |
| Nc1ncn([C@H]2C[C@H](O)[C@@H](CO)O2)c(=O)n1 | -9.37% |
